# Some of the results follow.
# Tested on: PF3D7_0420300 AP2 domain 1 (GST-tagged)
# Assay: gcPBM binding intensity (ln(normalized median fluorescence intensity)); higher = stronger DNA binding
# In short: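 For binding intensity, the highest Masliner-normalised natural-log median intensity across replicate spots of either probe orientation was taken. Protein bound to the array was stained with Alexa488 anti-GST antibody and scanned at 488 nm. The protein, GST-tagged P. falciparum DNA-binding domains from E. coli at about 25 μg on average, had been applied for 1 h to an Agilent 4 × 180k array of primer-extended double-stranded 36-bp intergenic genomic probes and negative controls.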
row,Sequence,gcPBM binding intensity (ln)
1,TTTTTTATTTTGTGCACACACATAAAAATATAAATA [CACACA_site6497],9.24
2,TACTCTTTCCAGAAGTGTACATAGAAATAATTACAT [XGTACX_site2668],9
3,TAAAAATAATATATTTGTACATATGTGTATACATAA [XGTACX_site741],8.99
4,TATAAATACATACATACACACATATATATATATATT [CACACA_site6116],9.54
5,TCCTAAAAAAAAAAAAAAAATGAAAAAGGAAAAAAA [CACACA_negctrl_site1646],9.03
6,CAAGCACAGAAACACACACACACACCGACACAGACA [CACACA_site4359],10.2
7,AAAAAAAAAAAAAAAAGTACTAAATGTAAAAGAATA [XGTACX_site2164],9.32
8,AAAAGTTGTTTATAATGTACAAGGTAGAAAAAAACA [XGTACX_site1454],9.35
9,TAAATGGATTGTTCAGGTACACATAAATATGATATT [XGTACX_site6963],9.24
10,ATATTATATAATAATGCATGCACCTTATTTTCATTT [TGCATGCA_site405],9.41
11,AACAAAATAAAAATAACACACACATTTATATATATA [CACACA_site8313],10
12,ATTATATTATTTTAAAGTACACACATATATTAATAT [XGTACX_site4769],9.52
13,ATATGCTAATAAAATTGTACATATTATTCATATTGT [XGTACX_site2344],9.29
14,CAATTAAAGAAAAACAGTACGTGTATCAAACATCCT [XGTACX_site8990],9.6
15,ATAAATACTTTTTGGTGTACACTTTTAAATGAAAAA [XGTACX_site3042],8.91
16,ATTTTTCCTCTCTTTTGTACTTATATATATATATAT [XGTACX_site7405],9.64
17,TGACTACATAAAATGACACACACAAACTTTAAAATT [CACACA_site9151],9.7
18,ATATATTTTTAGCACAGTACAATATAATTAAATATA [XGTACX_site6779],9.2
19,CATAAAATTGTGAAGTGTACATATTTTTAAATATAA [XGTACX_site8986],9.08
20,ATATATAATATAAGATGTACAATAAAATCTATATAT [XGTACX_site546],9.37
21,ATAACTTTATTTTCCTGTACACACATTTGACATATT [XGTACX_site7192],9.92
22,AGAAATATCTAATTGTGTACTCAAGAAAAAGTTACG [XGTACX_site372],9.29
23,ATATTTTATATGTTCACACATACATAAACATATTTT [CACACA_site4948],9.34

row,Sequence,gcPBM binding intensity (ln)
1,GAATAAAAATTTTAATGTACATATTTTTTATTTATA [XGTACX_site8935],9.04
2,GGTAGTTATTATCTCCGTACTTATAAAGAAAAAAGG [XGTACX_site4674],9
3,TTTATTTTCATATGAACACACATATAAATATTATAA [CACACA_site7172],9.17
4,TACAAATATATAAAATGTACATATATATACATATTA [XGTACX_site3029],9.1
5,TTTTTATTATTTAAATGTACATATAAATATATATAT [XGTACX_site6870],9
6,AAGAAGAAACGGAAAAGTACAAAGAAGAAATAAGTA [XGTACX_site3680],9.36
7,CTTACAGACATATATACACACATGTATATTTTATAT [CACACA_site549],9.49
8,ATGTTTTTAATTTATTGTACATTAATTTGTATTATT [XGTACX_site253],9.48
9,TTTTCTTTTCTCTTCTTTTTCTCCCATTATTAATCT [XGTACX_negctrl_site406],9.18
10,GAGGATGCCTATGGCACACATTATAAAACTGTCGCT [CACACA_site4322],9.11
11,TCTGTAAACATATTCACACACATAAATTCGCATATA [CACACA_site1866],9.66
12,ACAAAATAATTGTTTACACACCCATTTGTAATTTTA [CACACA_site3615],9.46
13,GAAAATTTATATTGCACACATAGGGAATAAAAAAAA [CACACA_site2146],9.53
14,TATCATTGTTCATGCTTGCACTTTTGTTACTGTTCC [GTGCAC_site9425],9.5
15,TGTATGAAAATAAATGCATGCCAAATATATATATAT [TGCATGCA_site132],9.4
16,AAAATGAAATATGTTATATATATATATATATATATA [CACACA_negctrl_site1752],8.98
17,TAATTTCCTTAAGAATGTACTTACATTTTATTATTT [XGTACX_site5998],9.16
18,ATGGACAAGTTAAACGCACACAAATATATACAGACA [CACACA_site1652],9.83
19,GTTTATGTATTATTATGTACGTATCATAATATATAT [XGTACX_site2385],9.49
20,TAATATGAAATGTGTACACACGCACCCACAAAAAAA [CACACA_site8949],9.74
21,AAAAAATATAAAAAAAGTACACAAAAACTACAAAAA [XGTACX_site2677],9.77
22,AAAAAGAGGAAAAAGATAAAGAAATTAAAGGAGAGA [CACACA_negctrl_site423],9.4
23,TTTAATCATTTTATTTGTACTCATAAAAAATATAAT [XGTACX_site5537],8.84

row,Sequence,gcPBM binding intensity (ln)
1,TTTTACTTAAGACACACACACACAAAAAAAAAAAAA [CACACA_site6573],9.88
2,TAAACATAAATATGCACACATATACAGATATTCATA [CACACA_site5471],9.44
3,ATAAAATACATATAAACACACATATAAACCGACATA [CACACA_site2477],10
4,AGTTTTTACTCTAATGGTACAGTGCAACTAATAAAT [XGTACX_site6950],9.1
5,ATATATTCCATAAAGGTGCTGTTAACGTGTCAACGT [GTGCAC_site9402],9.29
6,TTTATGTAAAAATATAGTACATATTAAAAGATAAGA [XGTACX_site8134],9.18
7,TAAGTATACACATACACACACACACTAAAAAAAAAA [CACACA_site6337],10.1
8,ACTTTATTTTCCTGTACACACATTTGACATATTAAA [CACACA_site3378],9.83
9,CACCAAACTAAATGTACACACATACATAAATATAAA [CACACA_site4765],9.67
10,AAAAACAAAAAAAAAACACACAATTCTAGTTATTTT [CACACA_site2767],9.45
11,TTTTTTTTCCTAATGTGTACTAAAAATGAACAATAA [XGTACX_site5248],8.84
12,AACATTATTTTGTGTACACATTCGGTTATATTATAT [CACACA_site5628],9.68
13,TTTTTTATTTTATTTTATTTTTATTTTTTTTTTTTT [GTGCAC_negctrl_site596],9.09
14,AAAAAAAAGAAACACACACACATACACATAAATATA [CACACA_site3807],10.1
15,ATATTTTTTTCATAGACACACACAATATATCTGTTT [CACACA_site8993],9.64
16,ATTTCATTTATAAGGATATCTACTTTTTATTTTAAT [GTGCAC_negctrl_site59],9.2
17,AAACGAAAAAAATGGTGTACATTAAAATGAAAATTG [XGTACX_site7040],9.34
18,TCTATCTTTTCCAAACGTACATTTTTTATATAAATT [XGTACX_site5352],9.23
19,TATTTTCCCTCCATATGTACTTAATTATAAGCACAT [XGTACX_site4000],9.12
20,TATATATCGCATAAAACACACAAAAAAAAAATTAAA [CACACA_site7767],9.39
21,TTATATTCTATTTATTGTACTTAAATATATATATAT [XGTACX_site6400],9.27
22,ATATATATCTTTTGTGTGCACATATATATAATATAT,9.73
23,AAAAAAAAAATATACACACACACATACACATAAATA [CACACA_site3808],10.1

row,Sequence,gcPBM binding intensity (ln)
1,TTTTTTTTGGTATAATGTACATTTTCACTTATGTAT [XGTACX_site3259],9.48
2,ACATATGTTAAAAAGGCATGCATTCTTTTTATTTTA [TGCATGCA_site1043],9.05
3,ATTTTATTTTCTCACACACACATATATATATATATA [CACACA_site5781],10
4,ACCAAAAAAAAAAAAAAAAAAATATACATATATATA [GTGCAC_negctrl_site582],9.05
5,GTGCCATTTAAAAAATGTACAAGAAAATGTTCATCA [XGTACX_site2865],8.97
6,TATTTTAATTTTTTTTTGTTTTTTCTAATACATGTA [CACACA_negctrl_site1399],9.15
7,TGGTATTGAATTTTTTGTACACATAAAATATATATA [XGTACX_site7614],9.15
8,ATAACATATTTCTTTTGTACTCAAAATAAAATTAAT [XGTACX_site2479],8.91
9,AATTTTGTTGAGCACACACACATACATACATACATA [CACACA_site3154],9.93
10,AAATATATTTTATTTTGTACTTATGTATAAAATATA [XGTACX_site914],8.89
11,ATTAAATTTCCTTGAGTGCACATTTTGTTAAAATAT,9.24
12,TATATATATATATATTGTACTAGTGCATATATATAC [XGTACX_site7926],9.2
13,ACGTGATAAATAAATACATGCATAGAAAGATGCATA [TGCATGCA_site91],9.18
14,TTTAAATATTTTAATACACACACGATATGTACAAAA [CACACA_site4455],9.5
15,TACAATGAAAAAATAACATGCAATTATATTTCTCTT [TGCATGCA_site833],9.17
16,AATAATAAAAAATATACACACATATATATATATATA [CACACA_site25],9.35
17,GCTTATAAAGGCAGAAGTACTGTATTCCTATATATA [XGTACX_site8865],9.22
18,AAAAAAAAAAAAAAATGTACATATGGTATGCATATA [XGTACX_site3225],9.24
19,TTGGCATACGGACACACACACACACCCAGACATATA [CACACA_site4492],10.2
20,TTATACAAATTCATGGGTACAAACAAACATATATCA [XGTACX_site6237],9.51

# Reference: the supplement of paper PMC11417369
